Test results published in PubChem BioAssay AID1508623 (National Center for Advancing Translational Sciences (NCATS), 2021).
Among all 48,000 compounds or so, about 450 (0.94%) were called active. Roughly 19% stayed inconclusive and do not appear here. Calls come from the whole dose curve; as a rule, active = well fitted inhibition curve with a large enough effect; inconclusive = small, poorly fitted or top-dose-only effect; inactive = no such curve, though single readings can be large or run the other way. The list shows a part of the results.

Assay: Primary qHTS for Identification of Small Molecule Inhibitors of Huntingtin Promoter Activity; note: nearly all actives have a fitted effect of over 50% in size
Details: HEK293 HTT promoter firefly luciferase reporter (activity 0% = vehicle and -100% = no light), 24 h; series mostly up to 57.5 µM; activity change, negative = inhibition: at the top concentration
In short: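 Luminescence was read after Dual-Glo reagent and a 10 min room-temperature incubation. Values were normalized to vehicle (0% activity) and zero RLU (-100% activity). Reporter HEK293 cells had been exposed to compounds (up to 57.5 uM final) for 24 h.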

Activity change, negative = inhibition, inactive:
CC(C)(C)c1ccc(C(=O)NC2(C(F)(F)F)C(=O)Nc3c2c(=O)[nH]c(=O)n3-c2ccccc2)cc1 (stereo not drawn) -13.1% [at 11.5 µM], Cc1cccn2c(=O)c3cc(C(=O)NCc4cccnc4)c(=N)n(CCCO)c3nc12 -12.7%, Cc1sc2ncn(CC(=O)N3CCN(c4ccc(Cl)cc4)CC3)c(=O)c2c1S(=O)(=O)N1CCN(c2ncccn2)CC1 -4.3%, COc1ccc(NC(=O)Cn2c(=O)n(-c3ccc(C)cc3)c(=O)c3c2cnn3C)cc1 -11.7%, O=C(Nc1ccc2nc(SCC(=O)N3CCCC3)sc2c1)c1cccc(Cl)c1 -14.3%, CCN1CCCC1=O 1.77%, CC(C)CCNC(=O)C1CCN(c2nc3ccc(Cl)cc3[nH]2)CC1 -1.77%, COc1ccc(C)cc1NC(=O)c1ccc(=O)n(Cc2ccccc2)c1 -13.1%, CCOC(=O)c1c(C)[nH]c(C)c1S(=O)(=O)N(C)CC(=O)Nc1ccc(C)c(N(C)C)c1 -32.8%, CCOC(=O)c1cc2c(=O)n3ccccc3nc2n(Cc2ccco2)c1=NC(=O)c1c(F)cccc1Cl -21.6%, COC(=O)c1cc2occc2n1Cc1nc(-c2cccc(Cl)c2)oc1C -1.63%, COc1ccc(NC(=O)c2c(C)oc3ccc(O)c(CN4CCCCCC4)c23)cc1Cl -21.8%, COc1ccc(/C=C/c2nc(C#N)c(NCCc3ccccc3)o2)cc1OC -9.73%, COc1ccc(Nc2nc3c(S(=O)(=O)c4ccccc4)nnn3c3ccsc23)cc1OC -13.7%, COc1ccc(CCNC(=O)c2cn(C)c3ccc(S(=O)(=O)N(C)C4CCCCC4)cc3c2=O)cc1OC -16.9% [at 11.5 µM], CC(=O)Nc1ccc(S(=O)(=O)Nc2cc(-c3cn4ccccc4n3)ccc2C)cc1 14.6%, COc1cccc(-n2c(=O)c3c(C)c(C)sc3n(CC(=O)NCc3ccccc3)c2=O)c1 2.44%, COc1ccc(-c2nsc(NC(=O)C(C)Oc3ccc(Cl)c(C)c3)n2)cc1 (stereo not drawn) -7.8%, Cc1ccc(C)c(Cn2c(=O)cc(C)c3c(C)nn(-c4cccc(F)c4)c32)c1 1.38%, COc1ccc(NC(=O)c2cnc(Nc3ccc(C)c(Cl)c3)c3ccccc23)cc1OC -12%, CCCN(CCC)CCNC(=O)c1ccc2c(c1)NC(=O)C(CS(=O)(=O)Cc1cccc(Br)c1)N2 (stereo not drawn) -7.99%, Cc1sc2ncn(CC(=O)N3CCN(c4cccc(Cl)c4)CC3)c(=O)c2c1S(=O)(=O)N1CCN(c2ncccn2)CC1 -16.4%, COc1ccc(NC(=O)c2ccc3c(SCC(=O)O)c4c(nc3c2)CCC4)c(OC)c1 -6.33%, CCOc1ccccc1N1CC(c2nc3ccccc3n2Cc2c(C)cc(C)cc2C)CC1=O (stereo not drawn) 25.3%, COc1ccc(-c2nc(C)c(CCNC(=O)C(=O)Nc3cc(C)cc(C)c3)s2)cc1OC 2.56%, N[C@@H](CC(=O)N1CCn2c(nnc2C(F)(F)F)C1)Cc1cc(F)c(F)cc1F 4.36%, CCOCCCNC(=O)C(c1ccc(OC)cc1)N(Cc1ccc2c(c1)OCO2)C(=O)c1ccccc1O (stereo not drawn) -23.7%, Cc1ccc(NC(=O)Cn2nc(C)n3cccc3c2=O)c(C)c1 -5.76%, Cc1cccc(N2CCN(C(=O)c3cc4c(=O)n(C)c5ccccc5c4s3)CC2C)c1 (stereo not drawn) -8.98%, Cc1c(F)c(N2CCNC(C)C2)cc2c1c(=O)c(C(=O)O)cn2C1CC1 (stereo not drawn) 4.09%, COc1ccc(N2CC(C(=O)NCc3nnnn3-c3ccc(C)c(C)c3)CC2=O)cc1 (stereo not drawn) 6.35%, COc1ccccc1NC(=O)Cn1c(=O)c(CNc2ccc(C)cc2)cc2cc3c(cc21)OCCO3 -24.1%, COc1ccc(CCNC(=O)C(=O)NCC(c2ccco2)S(=O)(=O)c2ccccc2)cc1 (stereo not drawn) -26%, COc1ccc(-c2nnc3n2N(C(C)=O)C(c2ccc(Cl)c(Cl)c2)=C(C(C)=O)S3)cc1 -9.1%, O=c1[nH]c(=O)n(C2CCCCC2)c(O)c1C1=Nc2ccccc2SC(c2ccc(Cl)cc2)C1 (stereo not drawn) -19.7%, COc1ccc2cc3cc(C(=O)N4CCN(c5ccccc5F)CC4)oc3nc2c1 0.567%, CCCOc1ccc(C2CC(=O)Nc3c2c(C)nn3-c2nncc(-c3cccc(OC)c3)n2)cc1OC (stereo not drawn) 4.37%, Cc1cccc(NC(=O)c2ccc3c(c2)CCN3S(=O)(=O)c2ccccc2)c1C -29.4%, COc1cccc(OC)c1C(=O)Nc1nc2c(s1)CCc1ccccc1-2 -11.6%, Cc1nc2c(c(C)c1CCC(=O)NCc1ccc(Cl)cc1)c(=O)n(C)c(=O)n2C -0.976%, COC(=O)c1ccc(NC(=O)N2CCN(Cc3cc(=O)n4nc(-c5ccc(C)cc5)sc4n3)CC2)cc1 -13.5%, CC(CNC(=O)CN1C(=O)c2cccnc2Oc2ccc(Cl)cc21)c1ccccc1 (stereo not drawn) -4.07%, COc1ccc(-c2noc(-c3ccc(N4CCN(c5ccccc5)CC4)c([N+](=O)[O-])c3)n2)cc1 -5.35%, O=C(NCc1nc2ccccc2[nH]1)c1c(F)cccc1F -3.83%, Cc1cccc(-n2c(C)nc3cc(C(=O)NCCC4=CCCCC4)ccc32)c1 12.9%, COc1ccc(NC(=O)CCNS(=O)(=O)c2cccc3nsnc23)cc1Cl -5.25%, CCn1c(=O)cc(OCC(=O)N2CCN(c3ccc(OC)cc3)CC2)c2ccccc21 -15.3%, CCCS(=O)(=O)N1CC(=O)N(c2ccc(C)cc2)C(C)(C(=O)NC2CCCCCC2)C1 (stereo not drawn) -8.11%, CCOc1ccccc1CN1CCc2nc(Nc3ccc4c(c3)OCCO4)ncc2C1 -23.9%, O=C(CSc1nc(Nc2ccc(F)cc2)c2ccccc2n1)c1ccc(F)cc1 -23.9%, CCOc1ccc(NC(=O)Cn2c(=O)c(CNc3ccc(CC)cc3)cc3cc4c(cc32)OCO4)cc1 -18.3%, Cc1cc(C)c2nc(NC(=O)c3ccc(S(=O)(=O)N4CCc5ccccc54)cc3)sc2c1 -13.3%, Cc1ccc(CNc2ncnc3onc(-c4ccc(F)cc4)c23)cc1 -15.7%, COc1cc(OC)c(NC(=O)N2CCCn3nc(C)cc32)cc1Cl -7.17%, COc1ccc(-c2nnc(SCC(=O)NC3CCCCC3)nc2-c2ccc(OC)cc2)cc1 -10.1%, COCCn1c(C)cc(O)c(C(c2ccccc2)N2CCN(c3ccccc3)CC2)c1=O (stereo not drawn) 0.393%, O=C(Cn1c(=O)n(Cc2ccc3c(c2)OCO3)c(=O)c2oc3ccccc3c21)Nc1ccccc1F -0.393%, CCc1cccc(NC(=O)CN2Cc3ccccc3C2=O)c1 -14.6%
